The text below walks through data of the RNAGym collection of RNA variant scans (doi:10.7554/elife.90254).

B1: OR4K15 (parent)
chain: GUUAACGGUCAUAGGCCAUGGAAACUAGGAGCACCAUUUCGCUGCCAGUGAAGAAAUGAACAAAGAAAAUCUGGGCCAGGCAGGCAUCAAAAGAAAUAGUCUUGCGCUCAACCAGAAAGUCUGUAAUCAUUUUAAGGGUA

The source gives no read counts; variants with many changes may rest on few reads.

This data set covers variants of B1. Kind of data set: self-cleavage, relative activity (ratio to wild type); higher = more cleavage; in vitro, sequencing; the parent is a self-cleaving ribozyme.
As to A33G U37C A89G, the self-cleavage came to 1.96.

As to A30U U102C U120C U132C, the self-cleavage was 2.29.

Regarding A33U A47U U132C, the self-cleavage was found to be 1.24.

As for A33G U120C U122C, the self-cleavage is 0.3.

As to A33G A55G U72G A78G, the self-cleavage was determined as 0.2.

In the case of A33G A55G A82G, the self-cleavage was 0.55.

On to A33G U122C A134G G136U, for which the self-cleavage was found to be 0.25.

Turning to A33G A47C A55G A69G U70A A126G, the self-cleavage turned out to be 0.21.

With A33G A62G A67G A95G A135G, the self-cleavage amounted to 0.35.

On to A33C A55U A64G A89G A116G U122C, for which the self-cleavage came to 0.02.

Consider A33G C40U A56G A114G G137A, for which the self-cleavage turned out to be 0.35.

In the case of A33G A94G A111G, the self-cleavage was 0.03.

As to A33G A51U U70A, the self-cleavage came to 0.64.

For A33G C34U U38A A86U U87C U127C, the self-cleavage was 0.34.

Take A33G A67G U122C A125G: the self-cleavage is 0.38.

Turning to C32G U38A A47G U72C A82U, the self-cleavage amounted to 0.25.

For A33G A36U G79A A118G, the self-cleavage amounted to 0.03.

Regarding A33G A59U A117G, the self-cleavage was found to be 1.19.

As to A33G A94G U131C, the self-cleavage was determined as 0.89.

As for A33G A78U A94G, the self-cleavage is 0.25.

Consider A30U U43C A56G, for which the self-cleavage amounted to 1.98.

Take C32A A33G C45U A69U A89U A91G: the self-cleavage is 1.67.

For the variant C32U A89G A95G U97C U100C U127C, the self-cleavage is 1.67.

As for A33G U49C U87C, the self-cleavage amounted to 0.55.

In the case of A33G G41A U49C A96G, the self-cleavage is 0.95.

For G31A A62C A82G A94G, the self-cleavage was 0.64.

For A33G U37C A52G U57A U108C, the self-cleavage came to 0.04.

For the variant A33G A55G A94U U132C, the self-cleavage is 1.07.

For the variant A33G A47G A64G A117G, the self-cleavage is 0.76.

Regarding A33C U102A A117G U120C, the self-cleavage was 0.24.

Turning to A33G A51G A92G, the self-cleavage is 0.88.

Regarding A33G U87C A98G, the self-cleavage came to 1.73.

Regarding A33G U38C A91U A118G, the self-cleavage was 0.99.

With G31U U49A A64G, the self-cleavage was determined as 0.9.

In the case of A33G U37A U49C C76U A134G, the self-cleavage was determined as 0.05.

Turning to G31A A82U U120C, the self-cleavage turned out to be 0.16.

A33G A116G A118G: the self-cleavage worked out at 0.14.

As to G31A U39C A69G A117U U122C, the self-cleavage came out at 0.27.

Consider A33G U97C U102C, for which the self-cleavage was found to be 1.6.

Take A33G A62C A66U G79U A96G: the self-cleavage came out at 0.05.

Consider A33G U122C U139C, for which the self-cleavage stood at 0.35.

Take A33C A52U A54G A55G U57A: the self-cleavage was determined as 1.

Consider A33C A68G U108C A114G, for which the self-cleavage stood at 0.01.

As for A33G U37A A51G A54G A59G A64G U103A A114U, the self-cleavage is 0.09.

For the variant A33G A63G A66U A96G, the self-cleavage worked out at 0.94.

With A33G A78G A86G A117G, the self-cleavage amounted to 0.08.

A33G A91G A129U: the self-cleavage is 0.34.

As to A33G G50A A134G, the self-cleavage was 0.91.

Take A33U A36U A82C A90U U122G: the self-cleavage came to 0.31.

As to G31A A33G U38G A64G G84C, the self-cleavage stood at 0.27.

Consider C32U U38C C85U, for which the self-cleavage was 1.82.

As to G31A A64G A82U C109U, the self-cleavage was 0.11.

On to A33G A69G U72C, for which the self-cleavage came to 0.15.

Consider A33G U97C A98G U108C, for which the self-cleavage is 0.

In the case of A33G A114U A116U, the self-cleavage is 0.

As for A33G G44A A94G A125G, the self-cleavage is 0.25.

For the variant A33G U38C A47G, the self-cleavage amounted to 0.89.

Turning to A33G A52G A56G A96G A126G, the self-cleavage amounted to 0.57.

Consider A33G U39A A55G A78G C121U, for which the self-cleavage was determined as 0.3.

Consider A33G A54U A110G, for which the self-cleavage stood at 0.11.

Turning to A33G U37C A64G A125G A135G, the self-cleavage came out at 0.2.

With A33G A68G U127C, the self-cleavage was determined as 0.32.

As for A33G A64C A68G, the self-cleavage was 0.97.

For the variant A33G A86G U87A, the self-cleavage came out at 0.42.

Consider A33G U100C U122C, for which the self-cleavage came to 1.69.

For the variant A33C A66G U108A, the self-cleavage amounted to 0.03.

Consider G31A A66G U108C A116G, for which the self-cleavage was 0.01.

In the case of A33G U49C A91G U100C A118G, the self-cleavage was determined as 2.63.

For the variant A33G A51G A63G, the self-cleavage amounted to 0.86.

Regarding A33G A64G A117C, the self-cleavage is 0.22.

With A33G A78C U130A, the self-cleavage is 0.12.

With G31C U39C A52G A62U A89U U127C, the self-cleavage was 0.72.

As to A33G U122C U130C U131C A135G, the self-cleavage came to 0.

As for C32U U43A G79A A86G, the self-cleavage was determined as 0.14.

For A33G U72A A78U A94U, the self-cleavage is 0.13.

For A33G C105U A117G A118C, the self-cleavage is 0.13.

Regarding A33G C45G A117G, the self-cleavage was determined as 1.19.

Take G31A U70C U87C: the self-cleavage turned out to be 0.78.

Take C32U A56G A89G: the self-cleavage is 1.25.

As for A33G U43A A90G U100C U120C, the self-cleavage was 0.89.

Take G31A A60U A90G: the self-cleavage amounted to 1.88.

In the case of G31C A55G U72G A90G A135U, the self-cleavage was 0.1.

With A33G A91G A92G, the self-cleavage came out at 1.12.

For the variant A33G U38C U97C, the self-cleavage came out at 1.

As for A33G C40U G73U, the self-cleavage was 0.12.

For the variant A33G A95G U120C, the self-cleavage was determined as 0.48.

With A33G A90G A94G A98G U108C U130C, the self-cleavage is 0.01.

For the variant A30U U57C G58A A68U A95G U122G, the self-cleavage came to 2.94.

In the case of A33G A47G A67G C88U A129C U131C, the self-cleavage came out at 0.23.

Consider A33G U39A U49C A94G, for which the self-cleavage is 1.43.

With A33G A51U U124C U133C, the self-cleavage was found to be 0.3.

A33G A89U A98G: the self-cleavage stood at 0.33.

With A33G U43C A66G A94G, the self-cleavage stood at 1.19.

Consider A33U A51G C105U, for which the self-cleavage was 0.74.

In the case of A33G A55G G65U, the self-cleavage came out at 0.18.

In the case of A33G U49A U130C, the self-cleavage amounted to 0.31.

In the case of A33G A67U A117U, the self-cleavage was 0.38.

With G31A U103G U131C, the self-cleavage is 0.08.

As for A33G A68G G75C U120A U122C, the self-cleavage was 0.06.

As for A33G U87A C105U, the self-cleavage was determined as 0.13.

Turning to A33G U72C A78C U131C, the self-cleavage came out at 0.02.

Take A33G A68U U139G: the self-cleavage came out at 1.67.

Turning to A33U A36G A78G A86G A91G, the self-cleavage worked out at 0.05.

Consider A33G A67G U103C U108C U132C, for which the self-cleavage amounted to 0.06.

Take A33G A36U U102C G138U: the self-cleavage came to 1.32.

As to A33G A60G A82G A91U U124C, the self-cleavage came out at 0.26.

A33G A56G A110G U127C: the self-cleavage was 0.04.

Consider A33G U122A A129G, for which the self-cleavage is 0.62.

In the case of A33G U39A C112G U122C, the self-cleavage came out at 0.

Consider A33G A52G A60G A69U, for which the self-cleavage came out at 1.13.

As for A33G C46U A68G A111U, the self-cleavage turned out to be 0.19.

As to A33G C85A A117C, the self-cleavage was 0.25.

Turning to A33G A62G U127C, the self-cleavage stood at 0.93.

G31C U38C A69G: the self-cleavage is 1.51.

On to A33G A60G A68U, for which the self-cleavage stood at 1.18.

Take A33G U37C A135U: the self-cleavage was found to be 1.18.

As for A33G A59G A118G, the self-cleavage was 0.61.

As to G31U U38C C46U, the self-cleavage was 2.11.

On to A33G A51U A90G, for which the self-cleavage amounted to 0.47.

As for A33G A69U A118G A125G, the self-cleavage came to 0.1.

Regarding A33G A69G A95G A110G, the self-cleavage turned out to be 0.09.

A33G A56G A66G U103G: the self-cleavage was 0.05.

Take A33C A47G A55U A68G: the self-cleavage worked out at 0.71.

Take A33G A62G U120A: the self-cleavage came to 1.22.

Take A33G U39C A47G A96G: the self-cleavage was determined as 0.58.

In the case of C32U U72C A78U A89U U120C, the self-cleavage amounted to 0.06.

With C32U U100C U102C U131C, the self-cleavage came to 2.12.

Regarding G31A A89U U122C, the self-cleavage came to 1.75.

With C32U A89G A117G, the self-cleavage was determined as 1.97.

As to A33G A62G A91G, the self-cleavage worked out at 0.89.

For A30U U49C A98G, the self-cleavage was 0.36.

Turning to A33G U38C U39C A67G A117G U124C, the self-cleavage came to 0.57.

As to A33G U39A U43C U100C, the self-cleavage worked out at 2.19.

For A33G A67G U100C U139C, the self-cleavage turned out to be 1.95.

On to C32U A66G A86G, for which the self-cleavage was determined as 0.48.

With A33G A63U A96G A111G, the self-cleavage was found to be 0.02.

For the variant A33G A66G A116G, the self-cleavage was determined as 0.72.

In the case of C32U G44A C76A U100C, the self-cleavage is 0.06.

Consider G31U A69G A114U, for which the self-cleavage was 0.02.

Consider A33G A66G A67G G73A G75A, for which the self-cleavage was determined as 0.13.

As to A33G U39A U103C A110G U133C, the self-cleavage stood at 0.07.

Turning to A33U A51G U102A, the self-cleavage worked out at 0.74.

With A33G A55G A67G G79C A91C, the self-cleavage is 0.09.

On to A33G A56G A134G, for which the self-cleavage came to 1.16.

In the case of A33G A66G A116G U120C, the self-cleavage turned out to be 0.33.

C32G U49C A68G U131C: the self-cleavage came out at 0.97.

A33G A63G U103C A117G: the self-cleavage is 0.55.

For G31C A47U A62G U87C U130A, the self-cleavage stood at 0.22.

Regarding A33C A117G A126G, the self-cleavage stood at 2.73.

A30U U72G U127C: the self-cleavage amounted to 0.18.

With G31C A96C A111U U139A, the self-cleavage was found to be 0.02.

Turning to A30U U100C U102C, the self-cleavage came out at 1.32.

For the variant A33G A47G A51C A117G U130C, the self-cleavage is 0.15.

As for C32U U108C U122A, the self-cleavage was 0.01.

Regarding A33U A47G U102C U108C U122C, the self-cleavage came to 0.01.

As for A33G C71U U124C, the self-cleavage was 0.1.

Turning to A33G U43C A98G, the self-cleavage amounted to 0.52.

For the variant G31A U39C A54C, the self-cleavage amounted to 1.43.

As to A33G C61U A111G A114G, the self-cleavage stood at 0.03.

With A33G A51G U57C A69G, the self-cleavage was found to be 0.48.

For A33G A69U A125G, the self-cleavage is 0.3.

Regarding A33U A47G A91G U130C, the self-cleavage amounted to 0.36.

With A33C U49C A60G, the self-cleavage is 1.4.

As to A33C A89G A126G, the self-cleavage was 0.98.

Regarding A33G A69G A91U, the self-cleavage came out at 0.57.

For the variant A33G A54G A69G U102C, the self-cleavage was 1.49.

A33G A91U U102C: the self-cleavage came out at 2.38.
